{"source": "patent US20250144229A1", "about": "“CONJUGATE OF ANTIBODY-ERIBULIN OR DERIVATIVE THEREOF, INTERMEDIATE THEREOF, PREPARATION METHOD THEREFOR, PHARMACEUTICAL COMPOSITION THEREOF AND USE THEREOF” (MEDLINK THERAPEUTICS (SUZHOU) CO., LTD., priority 2022, published 2025)", "binders": {"B1": {"name": "B7H3-ADC-01 (DAR8), coupling product of DL-001 and B7H3 antibody 2E3-02, P0DOX5 1-449 (protein)", "heavy": "EVQLLESGGGLVQPGGSLRLSCAASGFTFSSYAMNWVRQAPGKGLEWVSGISGSGGSTYYADSVQGRFTISRDNSKNTLYLQMNSLRAEDTAVYYCAKARSGYDYFFDYWGQGTLVTVSS[sequence of human IgG1 constant region omitted]", "light": "EIVLTQSPGTLSLSPGERATLSCRASQRISSSFLAWYQQKPGQAPSLLIYGASSRATGIPDRFSGSGSGTDFTLTISSLEPEDFAVFYCQQYSNSPLTFGGGTKVEIKRTVAAPSVFIFPPSDEQLKSGTASVVCLLNNFYPREAKVQWKVDNALQSGNSQESVTEQDSKDSTYSLSSTLTLSKADYEKHKVYACEVTHQGLSSPVTKSFNRGEC", "modifications": "here or on the partner: one DL-001 (eribulin drug-linker) payload molecule per light chain, attached via the S atom of a cysteine after TCEP reduction; position not stated; three DL-001 (eribulin drug-linker) payload molecules per heavy chain, attached via S atoms of cysteines after TCEP reduction; positions not given"}}, "molecular_target": "B7H3 protein on human tumor cells (MCF-7, A549, PC-3, HT29) (human), Q5ZPR3", "sequence (Q5ZPR3 29-534)": "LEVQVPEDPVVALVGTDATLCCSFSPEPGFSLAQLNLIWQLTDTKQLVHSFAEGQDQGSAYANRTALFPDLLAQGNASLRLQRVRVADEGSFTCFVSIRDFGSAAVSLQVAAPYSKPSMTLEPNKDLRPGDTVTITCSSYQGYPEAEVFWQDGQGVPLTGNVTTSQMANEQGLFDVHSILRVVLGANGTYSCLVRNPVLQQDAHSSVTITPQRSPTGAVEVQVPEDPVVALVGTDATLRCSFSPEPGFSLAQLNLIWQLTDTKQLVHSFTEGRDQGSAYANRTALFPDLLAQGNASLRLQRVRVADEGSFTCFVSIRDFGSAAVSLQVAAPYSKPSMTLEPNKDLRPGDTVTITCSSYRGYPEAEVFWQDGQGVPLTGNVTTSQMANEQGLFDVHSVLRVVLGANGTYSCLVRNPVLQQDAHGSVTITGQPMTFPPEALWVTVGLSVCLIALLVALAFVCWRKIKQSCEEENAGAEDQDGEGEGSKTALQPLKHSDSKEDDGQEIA", "assay": "cell-based or functional assay", "data": [{"binder": "B1", "values": [{"measurement": "IC50, inhibitory activity on cell viability in vitro (CCK8, 7 days), A549 cells", "result": 0.23, "unit": "nM"}, {"measurement": "IC50, inhibitory activity on cell viability in vitro (CCK8, 7 days), HT29 cells", "result": 0.039, "unit": "nM"}]}]}
